Laboratory results published in article PMC4336329 (PLoS ONE, 2015).
In all, about 310,000 compounds went through this assay and about 14,000 (4.5%) showed an effect of 50% or more. The effect is printed as a negative number. Some of the results follow. Where a SMILES comes first, the peptide text is derived from it. The star is where a group is joined. Boc = CC(C)(C)OC(=O)*; OBn = c1ccc(CO*)cc1

biological target: human ether-à-go-go-related gene (hERG) potassium channel (human, UniProt Q12809); assay: primary screen, population patch clamp on CHO cells stably expressing hERG
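Further: peak tail current of the secondary pulse compared with the same well before compound.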

Sequence of human ether-à-go-go-related gene (hERG) potassium channel (Q12809 whole entry, looked up): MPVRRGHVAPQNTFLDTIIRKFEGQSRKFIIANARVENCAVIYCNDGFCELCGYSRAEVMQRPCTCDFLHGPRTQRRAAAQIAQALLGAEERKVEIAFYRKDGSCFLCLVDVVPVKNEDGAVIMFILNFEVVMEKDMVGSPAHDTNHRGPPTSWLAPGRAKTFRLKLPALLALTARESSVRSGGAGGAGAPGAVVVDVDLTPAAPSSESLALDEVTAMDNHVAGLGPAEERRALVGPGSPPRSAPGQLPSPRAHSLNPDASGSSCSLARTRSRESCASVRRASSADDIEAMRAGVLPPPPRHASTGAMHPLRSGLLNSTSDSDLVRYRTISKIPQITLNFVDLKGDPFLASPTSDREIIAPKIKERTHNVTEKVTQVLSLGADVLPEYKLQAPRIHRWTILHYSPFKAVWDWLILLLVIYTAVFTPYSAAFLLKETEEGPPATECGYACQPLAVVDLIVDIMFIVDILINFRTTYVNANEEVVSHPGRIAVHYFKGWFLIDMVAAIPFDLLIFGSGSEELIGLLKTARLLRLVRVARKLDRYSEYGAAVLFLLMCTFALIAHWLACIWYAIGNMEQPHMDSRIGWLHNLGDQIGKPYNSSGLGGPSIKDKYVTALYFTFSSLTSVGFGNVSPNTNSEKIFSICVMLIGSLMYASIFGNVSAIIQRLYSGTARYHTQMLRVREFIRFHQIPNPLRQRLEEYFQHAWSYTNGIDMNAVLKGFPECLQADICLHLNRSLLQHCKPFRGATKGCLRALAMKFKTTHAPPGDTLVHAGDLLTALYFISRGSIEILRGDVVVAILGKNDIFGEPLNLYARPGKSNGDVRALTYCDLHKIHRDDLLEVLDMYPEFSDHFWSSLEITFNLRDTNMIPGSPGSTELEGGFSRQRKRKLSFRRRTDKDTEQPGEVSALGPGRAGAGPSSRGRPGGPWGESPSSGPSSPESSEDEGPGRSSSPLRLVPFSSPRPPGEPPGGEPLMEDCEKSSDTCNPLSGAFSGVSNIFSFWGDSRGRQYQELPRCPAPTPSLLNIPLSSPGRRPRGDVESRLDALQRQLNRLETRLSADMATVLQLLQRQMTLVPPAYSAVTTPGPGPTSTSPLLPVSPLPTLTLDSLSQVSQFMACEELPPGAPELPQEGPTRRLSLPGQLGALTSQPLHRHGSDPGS

| SMILES | hERG current change (%, negative = inhibition) at 10uM [%] |
| --- | --- |
| Cc1ccc(-c2csc(NC(=S)NC(=O)/C=C/c3ccco3)n2)cc1 | 23.6 |
| CCOc1ccc(-c2nnc3ccc(SCC(=O)Nc4nc5ccc(C)cc5s4)nn23)cc1 | -17.8 |
| COc1ccc(NC(=O)COC(=O)c2cc(OC)c(OC)c(OC)c2)c([N+](=O)[O-])c1 | -5.26 |
| O=C1CN(C(=O)c2ccccc2Br)C(c2ccc(F)cc2)c2cc(F)ccc2N1 (stereo not drawn) | -61.6 |
| CCN(CC)c1ccc(NC(=O)C2CCCC2)cc1 | 3.17 |
| Cn1c(N)c(C(=O)CSc2nnc(-c3ccccc3F)n2N)c(=O)n(C)c1=O | 15 |
| Cc1ccc(-c2cc(Cc3ccccn3)c(=O)[nH]n2)cc1 | -5.24 |
| COc1ccc(N2CSC3=C(C#N)C(c4cccs4)CC(=O)N3C2)cc1 (stereo not drawn) | -4.22 |
| COc1ccc(S(=O)(=O)N(C)CC(=O)NCc2cccnc2)cc1OC | 2.63 |
| CC(C)(C)c1ccc(/C=C/C(=O)Nc2nncs2)cc1 | 5.69 |
| COc1ccc(NCC(=O)Nc2ccc(C#N)cc2)cc1Cl | -12.4 |
| O=C(Nc1nnc(C2=COCCO2)o1)c1cccc(C(F)(F)F)c1 | 4.13 |
| CC(=O)c1ccccc1NC(=O)COC(=O)/C=C/c1ccc(C)o1 | -9.01 |
| CSc1ncc(C(=O)Nc2cccc(C)c2C)c(C)n1 | 9.56 |
| O=C(CSc1nc2ccccc2c(=O)n1-c1ccccc1)NCC1CCCO1 (stereo not drawn) | 20.2 |
| O=C(COc1ccccc1O)Nc1ccc(Cl)cc1 | 5.23 |
| COc1ccccc1C(CNC(=O)c1ccc(NS(=O)(=O)c2ccc(F)c(C)c2)cc1)N(C)C (stereo not drawn) | -24.4 |
| CCOC(=O)c1cnc(Nc2ccc(OCC)cc2)nc1C | 12.6 |
| Cc1c(NC(=O)C(C)OC(=O)COc2ccc(C#N)cc2)c(=O)n(-c2ccccc2)n1C (stereo not drawn) | -46.9 |
| CC1CCN(CC2C(=O)O[C@@H]3C[C@@]4(C)CCC[C@H](C)C4=C[C@H]23)CC(C)(C)C1 (stereo partly drawn) | 15 |
| O=S(=O)(NCC(c1cccs1)N1CCc2ccccc2C1)c1ccccc1 (stereo not drawn) | -8.41 |

| SMILES | hERG current change (%, negative = inhibition) at 10uM [%] |
| --- | --- |
| O=C(CSc1nccc(=O)[nH]1)c1cc2ccccc2o1 | 10.9 |
| COc1ccccc1CNC(=O)CCCc1ccccc1 | 0.395 |
| CCCC(O)(CCN(C)C)c1ccc(OC)cc1 (stereo not drawn) | 9.14 |
| N#CC(C(=O)NCCc1ccccc1)c1nc2ccccc2nc1N1CCCCC1 (stereo not drawn) | -5.88 |
| Cc1cc(C)n2nc(CC(=O)NCc3ccc(F)cc3)nc2n1 | -0.0725 |
| Cc1ccc(C(=O)Nc2ccnc(-c3ccncc3)n2)cc1 | 6.03 |
| CC(C)CC(NC(=O)C(NC(=O)OC(C)(C)C)C(C)C)C(=O)NC(CCC(=O)OCc1ccccc1)C(N)=O (stereo not drawn) (Boc-Val-Leu-Glu(OBn)-NH2; configuration not given here) | -1.72 |
| Cn1nc(C(=O)Nc2ccc(Cl)c(S(=O)(=O)N3CCOCC3)c2)c2ccccc2c1=O | -9.05 |
| CCCCNC(=O)CNC(=S)N(Cc1cc(OC)c(OC)c(OC)c1)C1CCCC1 | -12.2 |
| COCCNC(=O)N1[C@H]2CC[C@@H]1C(C(=O)OC)=C(c1ccc(-c3ccccc3)c(F)c1)C2 | -10.4 |
| COc1ccc(CC(=O)Nc2nc(-c3ccncc3)cs2)cc1 | 5.97 |
| O=C(NCCCn1ccnc1)c1cc(-c2ccc(Br)cc2)on1 | -51.6 |
| Cc1ccc([N+](=O)[O-])cc1-c1ccc(/C=N\n2nnnc2N)o1 | -5.53 |
| COc1ccc(S(=O)(=O)N2CCCCCC2)cc1C(=O)NCCc1ccc(F)cc1 | -31.4 |
| COC(=O)c1cc2c(cc1Cl)SC(=NCCCN1CCOCC1)NS2(=O)=O | -27.5 |
| CCOC(=O)c1ccc(NC(=O)Cn2cc3c(n2)CCC(C)C3)cc1 (stereo not drawn) | -4.16 |
| CCC1=NN2C(=N)/C(=C\c3ccc(SCc4ccco4)o3)C(=O)N=C2S1 | -0.273 |
| Cc1ccn2cc(CCNS(=O)(=O)c3ccc([N+](=O)[O-])cc3)nc2c1 | -69.7 |
| COCCC(=O)N1CCC(Oc2ccc(C(=O)N3CCCCCCC3)cc2)CC1 | 4.88 |
| N/C(Cc1ccc([N+](=O)[O-])cc1)=N\OC(=O)c1ccc2ccccc2c1 | 2.02 |
| Cc1ccccc1-c1noc(-c2ccccc2C(=O)NCC2CCCO2)n1 (stereo not drawn) | -3.02 |

| SMILES | hERG current change (%, negative = inhibition) at 10uM [%] |
| --- | --- |
| COc1ccc(C(=O)NCC(=O)Nc2cccc(S(=O)(=O)NCc3ccco3)c2)cc1OC | 13.8 |
| O=C(Cc1c(F)cccc1Cl)Nc1ncc([N+](=O)[O-])s1 | 20.9 |
| CCCCNC(=O)Nc1nc2ccccc2s1 | -5.74 |
| O=C(O)Cn1c(=O)c2c3c(sc2n(Cc2ccc(F)cc2)c1=O)CCCC3 | 17.9 |
| COc1ccccc1NS(=O)(=O)c1ccc(N/N=C/c2ccccc2OCC(=O)O)c([N+](=O)[O-])c1 | -1.09 |
| CC(=O)c1c(C)[nH]c(C(=O)N2CCN(S(=O)(=O)c3ccc(C)cc3C)CC2)c1C | -19.2 |
| Cc1cccn2cc(CCNC(=O)c3cccs3)nc12 | -7.55 |
| CCN(CC)C(=O)CSc1ncnc2c1nnn2-c1ccc(F)cc1 | -3.22 |
| Cc1nnc2sc(-c3csc4c3CCCC4)nn12 | -18.2 |
| O=C1c2sc3nc4c(c(=O)n3c2C(=O)N1c1ccccc1)CCC4 | -3.29 |
| O=C(CN(C(=O)c1csnn1)c1cccc(F)c1)NC1CCCC1 | 17.3 |
| N#CCc1ccc(NC(=O)c2ccc(S(=O)(=O)N3CCOCC3)cc2)cc1 | 1.97 |
| Cn1c(NNC(=O)c2cccc3ccccc23)cc(=O)n(C)c1=O | 6.73 |
| COc1ccc(NC(=O)c2cccnc2C(=O)O)c(OC)c1 | 15.6 |
| O=C(COC(=O)/C(=C/c1cccs1)c1cccs1)NC(c1ccccc1)c1ccccc1 | 7.68 |
| FC(F)(F)c1cccc(NC(=S)NNC(=S)Nc2cccc(C(F)(F)F)c2)c1 | 23.7 |
| Cc1[nH]c2ccccc2c1C(=O)CSc1nc2ccccc2[nH]1 | 1.74 |
| CN1CCN(C(=O)C2CC(=O)N(c3ccc(Cl)cc3)C2)CC1 (stereo not drawn) | -17.7 |
| Br.NS(=O)(=O)c1ccc(Nc2nc(-c3cccc([N+](=O)[O-])c3)cs2)cc1 | 31.9 |
| OC(c1ccc(F)cc1)C(CN1CCOCC1)c1ccccc1 (stereo not drawn) | 5.57 |
| Cc1nc2ccccc2nc1OCC(=O)Nc1ccc2ccccc2c1 | -6.32 |

| SMILES | hERG current change (%, negative = inhibition) at 10uM [%] |
| --- | --- |
| Cn1cc(/C=N/NC(N)=S)c2ccccc21 | 0.216 |
| Cc1ccc(NC(=O)CN2C(=O)NC(Cc3c[nH]c4ccccc34)C2=O)cc1S(=O)(=O)N1CCCCC1 (stereo not drawn) | 1.38 |
| COc1cc2nc(Cl)nc(N3CCCCC3)c2cc1OC | -15.6 |
| COc1ccc(CCNCC(O)Cn2c3ccccc3c3ccccc32)cc1OC (stereo not drawn) | -4.71 |
| Cn1cccc1Cc1nnc(SCC(=O)NC2CCCCC2)n1-c1ccc(F)cc1 | -16.9 |
| Cc1ccc(S(=O)(=O)N2CCN(C(=O)COC(=O)CNC(=O)c3ccccc3)CC2)c(C)c1 | -22.9 |
| Cc1cc(=O)oc2c(C)c(OCC(=O)N3C[C@H]4C[C@@H](C3)c3cccc(=O)n3C4)ccc12 | -0.0288 |
| Cc1cc(C)c2c(CN3CCN(Cc4ccc5c(c4)OCO5)CC3)cc(=O)oc2c1C | -45.8 |
| CCN(C(=O)c1ccco1)c1nc(CC(=O)Nc2ccc(Cl)cc2)cs1 | -6.6 |
| CCN(CC)CCn1c2c(c(SCC(=O)Nc3ccccc3Cl)nc1=O)CCC2 | -59.8 |
| CC(NC1CCCC1)C(=O)Nc1ccccc1-c1ccccc1 (stereo not drawn) | 4.92 |
| CCOC(=O)N1CCN(C(=O)c2cc(-c3ccc(OCC)cc3)nc3ccccc23)CC1 | -31.1 |
| Cc1cc(C)c2sc(NC(=O)c3ccc(N4C(=O)CCC4=O)cc3)nc2c1 | 2.56 |
| COc1ccc(/C=N/NC(=O)c2sc(C)nc2C)cc1 | 9.17 |
| COc1ccc(N2CC(NS(=O)(=O)c3ccc(F)cc3)CC2=O)cc1 (stereo not drawn) | 21 |
| COc1ccc(N2CCN(C(=O)COC(=O)Cc3c(F)cccc3Cl)CC2)cc1 | -79 |
| Cc1c(NC(=O)COC(=O)C2CC3C=CC2C3)c(=O)n(-c2ccccc2)n1C (stereo not drawn) | 13.2 |
| N#Cc1c(NC(=O)CSc2nc3ccccc3s2)sc2c1CCCC2 | 7.12 |
| O=c1c2ccccc2nc2c3ccccc3c(NCc3ccccn3)nn12 | -13.5 |
| COc1ccc(OC)c(S(=O)(=O)Nc2cc3c4c(c2)CCN4C(=O)CC3)c1 | -2.69 |
| Cc1ccc(NC(=O)C2CC2C)cc1S(=O)(=O)N1CCOCC1 (stereo not drawn) | -21.4 |
